Molecules are shown by their SMILES. Screen size: about 52,000 compounds; about 4,300 (8.3%) were called active. No stated cut-off is given here; in the data, active means survival mostly below about 52% (no sharp cut-off); inactive means mostly above about 56%. Some of the results follow.

This assay concerns DeltatarO mutant. Put plainly: S. aureus survival, RN4220 and DeltatarO strains – OD600, teichoic acid synthesis inhibitors, primary screen (AID 463173). The settings on record: S. aureus RN4220 wild type/DeltatarO growth, OD600, 18 h, active compounds read low, screened at 18.75 µg/mL (by protocol).
On to `Cc1ccc(COc2cccc3cc(-c4noc(-c5ccc(C)cc5)n4)c(=O)oc23)cc1`, for which the survival is inactive: 82%.
Consider `O=C(NCc1ccccc1Cl)C(=O)NCC(c1cccs1)S(=O)(=O)c1ccccc1` (configuration not stated), for which the survival was inactive: 116%.
Then `N#C/C(=C\c1ccc(-c2ccc(Cl)c(C(=O)O)c2)o1)c1nc2ccccc2[nH]1`, with active: 55%; and `Cc1ccc(-n2c(SCc3ccccc3C)nc3[nH]ncc3c2=O)cc1C`, with inactive: 77%.
Then `Cc1cccn2c(=O)c3cc(C(=O)NC(C)c4ccccc4)c(=N)n(CCOCCO)c3nc12` (configuration not stated), with inactive: 76%; and `CCOc1ccccc1N1CC(c2nc3ccccc3n2CCOc2ccccc2OC)CC1=O` (configuration not stated), with inactive: 95%.
Then `COc1ccc(-c2nnc(SCC(=O)c3ccc([N+](=O)[O-])cc3)o2)cc1OC`, with inactive: 90%; and `CC(C)c1ccc(NC(=O)CN2C=NS(=O)(=O)c3ccccc32)cc1`, with inactive: 91%.
For `O=C(CCc1ccccc1)Nc1nnc(CCN2CCCCC2)s1`, the survival was inactive: 97%.
As for `CCC(=O)OC1=CN(Cc2ccccc2)S(=O)(=O)c2ccccc21`, the survival was inactive: 75%.
In the case of `CCC(=O)C1=C(c2ccc(F)cc2)N(C(=O)CC)n2c(nnc2C2CCCCC2)S1`, the survival was inactive: 94%.
The figure for `CCN(CC)S(=O)(=O)c1ccc2c(c1)N(CC(=O)Nc1c(C)cc(C)cc1C)C(=O)CS2` is inactive: 75%.
Regarding `COC(=O)c1cc2oc(C)cc2n1Cc1ccc(C)cc1`, the survival is inactive: 69%.
The figure for `O=C(O)CNC(=O)c1nc2ncccn2n1` is inactive: 75%.
The figure for `CC(C)c1ccc(-c2noc(SCC(=O)N(C)c3ccc(F)cc3)n2)cc1` is inactive: 122%; for `CCOC(=O)c1cc(OC(=O)c2cccc(F)c2)n(-c2ccccc2)n1` it is inactive: 61%; for `CC(=O)N1CCCc2ccc(NC(=O)c3ccc(C(F)(F)F)cc3)cc21` it is inactive: 107%.
Then `CCOc1ccc(N(C(=O)c2ccc(OC)cc2)S(=O)(=O)c2ccc3c(c2)n(C)c(=O)n3C)cc1`, with active: 37%.
Take `O=C(NCc1cccnc1)C1CCN(Cc2cc3ccccc3n2Cc2ccccc2)CC1`: the survival was inactive: 135%.
The figure for `O=C(NN=C1CCCCC1)c1cccc(N2CCCC2=O)c1` is inactive: 104%.
The figure for `O=C1CC(c2ccc(F)cc2)c2c(n3c(nc4ccccc43)[nH]c2=O)N1` (configuration not stated) is inactive: 62%; for `CCCOc1ccc(C(=O)Nc2sc3c(c2C(=O)OCC)CCCCC3)cc1` it is active: 24%; for `CC(C)N(C(C)C)S(=O)(=O)c1ccccc1` it is inactive: 100%.
As to `CCc1ccc(CNC(=O)C2CCN(C(=O)c3ccc(-n4ccc5ccccc54)s3)CC2)cc1`, the survival was inactive: 89%.
The figure for `Cc1ccccc1CS(=O)(=O)c1ncc(Cl)c(C(=O)Nc2nnc(C(C)C)s2)n1` is active: 30%; for `Cc1oc(-c2cccc(Br)c2)nc1CSc1nc2ncccc2[nH]1` it is inactive: 78%.
Then `CCOc1ccc(CCNC(=O)Cn2nc(CC)n3c(cc4c(OC)cccc43)c2=O)cc1OCC`, with inactive: 129%; and `Cc1cccc(N2CCN(C(=O)CN3C(=O)COc4ccc(S(=O)(=O)N5CCCC5)cc43)CC2)c1C`, with inactive: 75%; and `CCOC(=O)CCn1ccc(=O)[nH]c1=O`, with inactive: 98%.
The figure for `N#C/C(=C\c1c(Oc2ccc(F)cc2)nc2ccccn2c1=O)c1nc2ccccc2s1` is inactive: 61%; for `COc1cc2cc(C)c(SCC(=O)N3CCN(C(=O)c4ccco4)CC3)nc2cc1OC` it is inactive: 73%; for `Cc1ccc(NC(=O)C2CCCN(S(=O)(=O)c3c(C)nn(C)c3C)C2)c(C)c1` (configuration not stated) it is inactive: 80%.
Take `CCOC(=O)N1CCN(Cc2nc3cc(NC(=O)c4ccc([N+](=O)[O-])cc4)ccc3n2C(C)C)CC1`: the survival is inactive: 75%.
The figure for `CCN1C(=O)c2ccccc2S(=O)c2ccc(C(=O)NCc3ccccc3OC)cc21` (configuration not stated) is inactive: 68%; for `Cc1cccc(OCCSc2nc3ccccc3n2CC(=O)N2CCOCC2)c1C` it is inactive: 50%; for `O=S(=O)(Nc1cccc(-c2ccc(N3CCCC3)nn2)c1)c1cc(F)ccc1F` it is inactive: 88%.
Then `Cc1cc(Nc2cccc(C(F)(F)F)c2)nc2ccc(NC(=O)c3cccnc3)cc12`, with inactive: 124%.
Then `CCOC(=O)c1c(C)oc2nc(C)nc(N3CCN(c4cccc(C)c4C)CC3)c12`, with inactive: 83%; and `CCCCCOc1ccc(NC(=O)Cn2c(-c3cncs3)nc3ccccc32)cc1`, with inactive: 86%; and `CC(=O)NC(NC(C)=O)c1ccccc1`, with inactive: 83%.
On to `COc1cccc(CNC(=O)Cn2c(SCC(=O)Nc3ccc(C)c(C)c3)nc3ccccc32)c1`, for which the survival was inactive: 87%.
The figure for `CSc1ccc(NC(=O)Cn2nnnc2-c2ccccc2F)cc1` is inactive: 81%.
Take `COc1ccc(S(=O)(=O)NCC(c2ccco2)N2CCN(c3ccccc3F)CC2)cc1C` (configuration not stated): the survival was inactive: 82%.
On to `COc1cc(/C=C/c2nc3cc(Cl)ccc3c(=O)n2-c2ccc(C)cc2C)cc(OC)c1OC`, for which the survival is inactive: 86%.
Then `CCOC(=O)c1nnn(CC(=O)NC(=O)Nc2ccc(F)cc2)c1C(=O)OCC`, with inactive: 149%.
The figure for `Cc1ccc(-n2nc3cc(C)c(NC(=O)Cc4ccc(Cl)cc4)cc3n2)cc1` is inactive: 64%; for `COc1ccc(CNC(=O)c2ccc3c(c2)N(Cc2ccccc2)CCS3)cc1` it is inactive: 69%.
Then `Cc1ccccc1Nc1nnc(-c2ccc(C)c(S(=O)(=O)N3CCCCC3)c2)c2ccccc12`, with inactive: 108%; and `O=C(COc1ccccc1)NS(=O)(=O)c1ccc(N=NN2CCOCC2)cc1`, with inactive: 92%.
With `Cc1ccccc1C(=O)Nc1ccc2oc(-c3ccc(Cl)c(Cl)c3)nc2c1`, the survival is inactive: 64%.
The figure for `COc1nnc(-c2ccc(N3CCCCC3)c(NC(=O)c3ccccc3)c2)c2ccccc12` is active: 0%; for `O=C(NCC(c1cccnc1)N1CCc2ccccc21)C(=O)Nc1ccccc1F` (configuration not stated) it is inactive: 101%.
Then `CCc1cccc(NC(=O)c2cccc3c2C(=O)N(C2CCCCC2)C3)c1`, with inactive: 85%; and `CC(NC(=O)c1cc(-c2ccc(Cl)cc2)on1)c1ccccc1` (configuration not stated), with inactive: 142%; and `CCOC(=O)c1c(C)n(S(=O)(=O)c2ccc(C)cc2)c2ccc(NS(=O)(=O)c3ccc(C)cc3)cc12`, with inactive: 60%.
Then `COc1cc(OC)c(NC(=O)c2cn(C)c(=O)c3cc(OC)c(OC)cc23)cc1Cl`, with inactive: 60%; and `O=C(/C=C/c1ccccc1)N1CCN(Cc2cc(=O)n3nc(-c4ccccc4Cl)sc3n2)CC1`, with inactive: 77%; and `CN=C1S/C(=C\c2ccc(N3CCCC3)cc2)C(=O)N1C`, with inactive: 90%.
For the molecule `O=C(CN1C(=O)C2(SCC(=O)N2c2ccc(Cl)cc2)c2ccccc21)NCCc1ccccc1` (configuration not stated), the survival is inactive: 80%.
Then `CCOc1ccccc1NC(=O)c1c(NC(=O)c2ccncc2)sc2c1CCC(C(C)(C)C)C2` (configuration not stated), with inactive: 142%; and `COc1ccc(Cl)cc1NS(=O)(=O)c1c(C)[nH]c(=O)[nH]c1=O`, with inactive: 47%; and `Cc1ccc(O)c(NC(=O)CCSc2nc(-c3ccco3)cc(C(F)(F)F)n2)c1`, with active: 28%.
Then `CC(C)Oc1ccc(C(=O)Nc2nc3c(s2)CC(C(C)(C)C)CC3)cc1` (configuration not stated), with inactive: 115%; and `O=C(NCC(c1ccc2c(c1)OCO2)N1CCN(c2ccccc2)CC1)c1ccccc1` (configuration not stated), with inactive: 69%; and `Cc1oc2ncn(CC(C)C)c(=O)c2c1C(=O)N(Cc1ccccc1)C(C)C`, with inactive: 70%.
The figure for `CCn1c(C)c(C)c2cc(C(=O)NCc3ccc(OC(C)C)cc3)ccc21` is inactive: 90%.
On to `COc1ccc(NC(=O)Cn2c(=O)n(Cc3ccc4c(c3)OCO4)c(=O)c3ccc(C(=O)NC4CCCCC4)cc32)cc1`, for which the survival was inactive: 73%.
For `COc1ccc(-c2noc(N3CCC(C(=O)N4CCN(c5ccccc5F)CC4)CC3)n2)cc1`, the survival was inactive: 100%.
Then `CCOCCCNc1nc2ccccc2n2c(CC)nnc12`, with inactive: 122%.
Then `C=Cc1ccc(Cn2c(=O)cc(C)c3c(C)nn(-c4ccccc4)c32)cc1`, with active: 17%.
Then `COc1cc(OC)cc(-c2cc3nc(C)c(CCC(=O)Nc4ccc(C(C)=O)cc4)c(C)n3n2)c1`, with inactive: 93%; and `CSCCC(NS(=O)(=O)c1ccc2c(c1)oc(=O)n2C)C(=O)Nc1ccc(Cl)cc1` (configuration not stated), with inactive: 94%; and `CC(C)c1ccc(CNc2nc(-c3ccco3)nn2C(=O)c2ccc([N+](=O)[O-])cc2)cc1`, with inactive: 79%.
Take `COCc1cc(C)nc2sc3c(c12)NC(c1ccc(O)c(OC)c1)N(c1ccccc1)C3=O` (configuration not stated): the survival was inactive: 80%.
The figure for `COc1ccc(OCC(=O)N(Cc2cccs2)c2ccc(OC)cc2)cc1` is inactive: 66%.
Then `C=CCn1cc(/C=C2\SC(=O)N(C)C2=O)c2ccccc21`, with inactive: 85%.
Consider `COC(=O)c1ccccc1NC(=O)Cn1c(=O)n(CCC(=O)NCc2ccccc2OC)c(=O)c2ccccc21`, for which the survival is inactive: 82%.
`Cc1cccc(NC(=O)CCN2CCN(c3ccccc3F)CC2)c1`: the survival was inactive: 151%.
The figure for `CCOC(=O)c1c(S(=O)(=O)NCC(=O)N2CCN(c3cc(C)ccc3C)CC2)c(C)n(C)c1C` is inactive: 71%.
On to `COc1ccc2occ(C(=O)c3coc4ccc(O)c(CN(C)C)c34)c2c1`, for which the survival was inactive: 105%.
Then `COc1ccccc1NC(=O)CSc1nc(-c2ccc(C)cc2)nc2c1Cc1c(CO)cnc(C)c1O2`, with active: 49%.
The figure for `Cc1nn2c(=O)cc(COC(=O)c3ccc(NC(=O)c4cccc(Br)c4)cc3)nc2s1` is inactive: 97%; for `COc1ccc(-c2cn3nc(N4CCCC(C(=O)Nc5ccccc5OC)C4)sc3n2)cc1` (configuration not stated) it is inactive: 124%; for `COc1ccc(Cl)cc1S(=O)(=O)Nc1cccc(-c2ccc(N3CCCC3)nn2)c1` it is inactive: 84%.
Then `CN(c1ccccc1)S(=O)(=O)c1nnc(NC(=O)COc2ccccc2)s1`, with inactive: 56%; and `CCOC(=O)c1cc2c(=O)n3ccccc3nc2n(Cc2ccco2)c1=NC(=O)c1ccc(C)c(C)c1`, with active: 34%; and `O=C(Nc1cc2c(cc1C(=O)c1cccc(Br)c1)OCCO2)c1ccccc1F`, with active: 28%.

Values taken from PubChem BioAssay AID463173 (ICCB-Longwood Screening Facility, Harvard Medical School, 2010).
